# Data from the supplement of paper PMC11417369.
# ± gives the standard deviation of the averaged measurements. The list shows a part of the results.
# Tested on: PfAP2-LT AP2 domain (GST-tagged)
# Assay: gcPBM binding intensity (ln(normalized median fluorescence intensity)); higher = stronger DNA binding
# How it was run: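 Binding intensity values are the highest Masliner-normalised natural-log median intensity among replicate spots of either probe orientation. The binding step lasted 1 h in 1× PBS with 1% milk, 0.2 mg/ml BSA, 0.5% salmon testes DNA and 0.03% Triton X-100, using GST-tagged P. falciparum DNA-binding domains expressed in E. coli on an Agilent 4 × 180k array of primer-extended double-stranded 36-bp intergenic genomic probes plus negative controls. Alexa488 anti-GST antibody and a 488 nm scan detected bound protein.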
row,Sequence,gcPBM binding intensity (ln)
1,ATTTTTTTTCTTTTTTTTTTACATTTTTTTCTTTTT [CACACA_negctrl_site1289],8.78 ± 0.48
2,GCCATTAATTTATACACACACATTATGATTTTTTAT [CACACA_site754],9.29 ± 0.36
3,CCTGAACACATACATACACACACACTAATAAAAAAA [CACACA_site8023],9.69 ± 0.46
4,ATGCATATGTTTATTGCACACACCAAAAAGAAAACA [CACACA_site403],9.35 ± 0.33
5,TACAAACTATGATGCACACATATATATATGTATACA [CACACA_site1226],9.15 ± 0.3
6,AATTTAAACAAGGATCCACACACCCCAAAAAAAAAA [CACACA_site8125],9.55 ± 0.23
7,AATAATTAAAATTATCTACACACCTTTATAAATATA [CACACA_site9300],8.56 ± 0.47
8,TAAATTTAGAAACACACACACATATATATATATATA [CACACA_site847],9.995 ± 0.0071
9,TTTATATTATTTTAAACATGCACAAGTATAATTTAT [TGCATGCA_site233],8.43 ± 0.4
10,TTTTCATATGAACAATGTACACATCGTATAATTCTG [XGTACX_site4756],8.83 ± 0.48
11,TGAACAGACGAGCACACACACACATATATATATATA [CACACA_site1019],10.3 ± 0.2
12,CTCATAAAAATAACGTTAACATAAATTTATTGTGAT [XGTACX_negctrl_site169],8.81 ± 0.37
13,AATATAAAACATATCACACATATGTATTTATGTATA [CACACA_site5763],8.81 ± 0.34
14,TATATGTCAATATCTACACACATATATATAATTATT [CACACA_site3156],9.02 ± 0.38
15,ATACATATTAAAGGATGTACACTTATATTTTTTAGA [XGTACX_site5406],8.63 ± 0.38
16,TGTGGGAATAACCACACACACACACGCATATAAATA [CACACA_site7634],9.88 ± 0.38
17,ATAAAATAACACAACGTTGACAAATTTGGATGACTC [XGTACX_negctrl_site324],9.32 ± 0.4
18,TTTATTAAAATATTCTCACACACCAAAATATGTATG [CACACA_site932],9.05 ± 0.58
19,ATATATGTAGATATATGTACATATATAGGTAGATAT [XGTACX_site7589],9.34 ± 0.46

row,Sequence,gcPBM binding intensity (ln)
1,TTGATGTTGGTAGGATGTACGGTACCGGTAGTATTT [XGTACX_site6642],8.94 ± 0.42
2,AATTTATTTTTTTGATGTACATACAATTTATCACAA [XGTACX_site5936],8.69 ± 0.38
3,AAGGAAAAGTAAAGAAGTACTGTACCGCCAAAAAAA [XGTACX_site2607],8.98 ± 0.56
4,AAAATAATAAAAAGGGGTACAAAGAAACAAATATAA [XGTACX_site296],8.98 ± 0.54
5,TATGTGCATATAAACTCACACATTGTATATTACATG [CACACA_site6106],8.89 ± 0.37
6,TATTACATTATATAAACATGCAAAACTATATATTAT [TGCATGCA_site601],8.7 ± 0.3
7,ATTTTAGAATTTAATACACACAAAAAAAAAAAATTA [CACACA_site3704],8.6 ± 0.47
8,ACTTTAGAAATAGAGGTGCTATTTTTATTACCACAC,8.85 ± 0.54
9,AAAAATTTATTTAAAAGTACATAAAATAAAGGTGGA [XGTACX_site7591],8.65 ± 0.53
10,TATACACATATATACACACACATATATAAATAAATA [CACACA_site7579],9.48 ± 0.37
11,TGCACAAAGTTATGCACACACCTAAAATTAATTTTT [CACACA_site7385],9.12 ± 0.36
12,TTATAATATGTATACACACACATATATAGATATATA [CACACA_site7159],9.18 ± 0.35
13,GTACATAGGTATAGCACACACAAATGTAGGTATTTT [CACACA_site4049],9.45 ± 0.44
14,ATTCTTTATATGCATACACACCTAATATAGGGACCT [CACACA_site6830],9.12 ± 0.39
15,AAATGTAATATAAATAGTACATATTAAATAAAATTA [XGTACX_site6917],8.72 ± 0.47
16,ATGTGCACATATAAAAGTACACGCACATATATATAT [XGTACX_site1238],9.33 ± 0.3
17,TATATAATTGTCTTCACACACACATATATATATATA [CACACA_site2744],9.565 ± 0.078
18,AAGAATATTATAAACACACACTTTATAAAGAATTAT [CACACA_site4241],9.02 ± 0.38
19,TATTTTATTTGTATATTCATTTGTATAATATAAATA [TGCATGCA_negctrl_site267],8.44 ± 0.45

row,Sequence,gcPBM binding intensity (ln)
1,AAAAAAAAAAAAAAAACACACATAAAAATATAATAA [CACACA_site3855],8.74 ± 0.63
2,ATTATATATAATATAGTGCATGTAAAAAATAAAACA,8.95 ± 0.48
3,GATGTATTCATACATGCACACGTACATATTTAAATA [CACACA_site9299],9.09 ± 0.28
4,TAAACCAAAAAAAGTAGTACAAATATTATAAAAAAA [XGTACX_site8497],8.69 ± 0.52
5,TATTTTAATTTTTGTTGTACGCAAATGTGAGGGCAT [XGTACX_site4663],8.54 ± 0.4
6,AAATCGTGCACGGACACATGCAGTAGCCGAGAATTA [TGCATGCA_site733],9.12 ± 0.38
7,TGTTTATTTATTTGTGTGCACTCAGATTATATTATA [GTGCAC_site9510],9.34 ± 0.49
8,GTTCATAAATTAAACACACACACACGGCTGGATACC [CACACA_site7545],9.79 ± 0.26
9,AGGTAGAAAAAAGACACACACATTAGATATTTATAT [CACACA_site6313],9.38 ± 0.47
10,GTAAAACAGATTTACAGTACACATGTGTTATGTTTT [XGTACX_site2933],9.06 ± 0.42
11,TTTTTATATTTTATTATTTTTTTTATATAAAAAATT [CACACA_negctrl_site601],8.38 ± 0.59
12,TTTATATATAAATAATGTACAAAAAATTTTAAAAAG [XGTACX_site7990],8.39 ± 0.39
13,ATAAAAATATTTGAATGTACTTATAAGATATATATA [XGTACX_site4257],8.54 ± 0.45
14,TCTATTTTTTATATGGTGCATTGTTCTTATTAATAT [GTGCAC_site9392],8.92 ± 0.47
15,CTTTATTTTTTATACACACACAATATGTATTTATAT [CACACA_site5879],9.28 ± 0.51
16,AATTAATTTATGTTACGTACATAAGTATTATATTTT [XGTACX_site388],8.8 ± 0.39
17,AGGAAAAATAATTATTCACACAATAAATATATTTGA [CACACA_site5824],8.57 ± 0.57
18,GTTCAAATTATTATGTGTACTAAAGAATATTTTAAA [XGTACX_site3166],8.29 ± 0.43
19,TAAATACATCTATGCACACAAAAAAATATATATTTT [CACACA_site5027],9.02 ± 0.39
